Reference: the supplement of paper PMC3334620
Over roughly 33,000 sequences, “E-score (-0.5 to 0.5)” has its median near -0.054; the highest 2% begin near 0.35. The list shows a part of the results.

Target: T1, Stb5 (UniProt P38699)
T1 sequence: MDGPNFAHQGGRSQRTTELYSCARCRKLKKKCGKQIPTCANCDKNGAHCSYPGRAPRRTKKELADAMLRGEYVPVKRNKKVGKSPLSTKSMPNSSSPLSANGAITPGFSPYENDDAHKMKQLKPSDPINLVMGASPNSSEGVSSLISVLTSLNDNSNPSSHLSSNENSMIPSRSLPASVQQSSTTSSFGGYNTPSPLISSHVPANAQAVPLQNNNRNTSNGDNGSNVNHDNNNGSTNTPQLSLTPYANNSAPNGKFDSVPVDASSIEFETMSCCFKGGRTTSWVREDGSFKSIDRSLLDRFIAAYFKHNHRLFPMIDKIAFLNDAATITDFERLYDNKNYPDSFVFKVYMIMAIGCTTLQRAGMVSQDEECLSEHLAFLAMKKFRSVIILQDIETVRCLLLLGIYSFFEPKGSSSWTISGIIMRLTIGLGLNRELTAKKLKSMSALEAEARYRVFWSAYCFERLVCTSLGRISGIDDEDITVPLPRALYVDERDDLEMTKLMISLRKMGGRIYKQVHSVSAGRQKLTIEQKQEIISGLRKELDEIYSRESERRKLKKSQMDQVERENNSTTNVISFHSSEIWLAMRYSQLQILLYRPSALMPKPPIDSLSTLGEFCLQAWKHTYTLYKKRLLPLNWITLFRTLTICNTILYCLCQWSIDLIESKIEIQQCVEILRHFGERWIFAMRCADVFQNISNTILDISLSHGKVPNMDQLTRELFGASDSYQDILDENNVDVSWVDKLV
Assay: PBM E-score (8-mer binding enrichment) (E-score (-0.5 to 0.5)); higher = stronger / more preferred TF binding; most listed sequences are background and not binding sites
Conditions: protein concentration: 200 nM; construct: GST-full length
Method in brief: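 Universal all-10-mer Agilent arrays, double-stranded by primer extension on fresh or once-stripped slides, were probed with about 100-200 nM GST-tagged yeast transcription factors made by PURExpress. Fluorescent anti-GST detected bound protein, and masliner normalised the scans. E-scores from the Universal PBM Analysis Suite were given to each ungapped eight-base word pooled with its reverse complement.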

| Sequence | PBM E-score |
| --- | --- |
| ATGCTGTA | -0.141 |
| GGGATCTA | 0.0662 |
| ATGATCAG | -0.162 |
| CAGTAGTA | -0.289 |
| TCGCATCA | 0.0229 |
| GAGTATCA | 0.00537 |
| ACCACCAA | -0.0217 |
| ATGTGAAA | -0.213 |
| ACAATTCT | -0.237 |
| GCTGTAGA | -0.206 |
| CTCAGTGA | -0.207 |
| AAGTGCTC | -0.227 |
| CGCCAACA | 0.0601 |
| CTTCTACA | -0.162 |
| GCAGGGAA | -0.0679 |
| CTTGTAAA | -0.047 |
| AATCGGAA | 0.0927 |
| AGCTTCCT | -0.248 |
| AAAACCGT | 0.2 |
| GGGGAGGA | -0.183 |
| ATGGTTGG | 0.0159 |
| AGTAATGG | -0.147 |
| ATTTCGTG | -0.112 |
| AGGACCCG | 0.132 |
| GAACCTTA | 0.0737 |

| Sequence | PBM E-score |
| --- | --- |
| ACCTGTCA | 0.00165 |
| CACCTATG | 0.0233 |
| CATGTTCC | -0.0768 |
| GCGTGCTA | -0.239 |
| ATAGATGG | -0.076 |
| CTGCTCTA | -0.132 |
| CGGCACGA | 0.294 |
| ACACCTAG | 0.132 |
| CGCCTTTA | 0.105 |
| CAATTATA | -0.123 |
| CGGTAGTA | 0.385 |
| CCAGTCTA | -0.158 |
| GCTTGTGA | -0.282 |
| ACGGGTGC | -0.0196 |
| GCTGCCTA | -0.112 |
| AAATCTAC | -0.0228 |
| AAATCTGT | -0.203 |
| CAGTGTTC | -0.104 |
| CCACTGCG | -0.0774 |
| ATCTCGTC | 0.0028 |
| AGCCCAAG | -0.15 |
| AAAATAGT | -0.00761 |
| ACAAGCGA | -0.217 |
| GAGCGGCC | 0.293 |
| CCTGATAC | -0.0287 |

| Sequence | PBM E-score |
| --- | --- |
| CAAGAGGC | -0.0488 |
| CCTTCGAC | -0.171 |
| GATCTCTA | -0.151 |
| CACGCTGC | -0.0954 |
| ACTTAACG | -0.0606 |
| AGGTCCAC | -0.0841 |
| AAAGCGGT | 0.292 |
| ATGTTCGC | 0.0661 |
| CATCAGCA | -0.126 |
| CGTGGCTA | -0.162 |
| ACCGTTCG | 0.215 |
| AATCAATA | -0.125 |
| CATTGGGA | -0.193 |
| GATCCATC | -0.0119 |
| ACGAAGAC | -0.00145 |
| CGCTCTGA | 0.0658 |
| CCCCGGTC | 0.369 |
| AACCAATA | -0.126 |
| AAGTGTTG | -0.263 |
| CCCCTCCG | -0.00651 |
| TACAGTCA | -0.195 |
| AACGAACC | -0.116 |
| CCAGTTGC | -0.0972 |
| TGCCCCCA | -0.125 |
| ACAGCGAA | 0.0495 |

| Sequence | PBM E-score |
| --- | --- |
| TGAGAGCA | -0.206 |
| ATCATTAA | 0.0391 |
| AATATATG | 0.129 |
| ACACGGGC | 0.191 |
| AGTACTCC | -0.101 |
| CGTCAGCA | -0.28 |
| GATCTAAC | -0.143 |
| AATTTTCT | -0.162 |
| AACAGTCT | -0.364 |
| ATTTGAAC | 0.131 |
| ATAAATCC | 0.382 |
| CCCGATTC | 0.27 |
| AACAAAGT | -0.0267 |
| ACACTGAC | -0.166 |
| CGATACAC | 0.0819 |
| CTTCGTCA | -0.133 |
| CCCGCCAC | 0.307 |
| TACGCCAA | -0.186 |
| AAAGGGCG | -0.0161 |
| CGCCGAGA | 0.225 |
| TCAGAACA | -0.175 |
| GCTGTCAA | 0.0415 |
| AAGGAAGG | -0.209 |
| CACTAGTC | -0.169 |
| GTGCACTA | -0.208 |

| Sequence | PBM E-score |
| --- | --- |
| ACCAGTGC | -0.204 |
| CGGTAAGA | 0.263 |
| AAGTGAGT | -0.073 |
| CCCACGGG | 0.122 |
| AACTGTGC | -0.157 |
| CAAGCTCC | 0.127 |
| CATTGCGC | -0.0616 |
| AATTCCCT | -0.0892 |
| GGCACCAC | -0.00064 |
| TAAGTATA | 0.0313 |
| GCGAGTAA | -0.0954 |
| TCCCCAGA | -0.131 |
| ATAGACCA | -0.188 |
| ATCACCGA | 0.433 |
| AGGCGCCC | -0.152 |
| CGACAGTA | 0.0893 |
| ATATTGCC | 0.27 |
| AACACACC | 0.217 |
| AGTACATC | 0.0635 |
| ACAAAGTA | -0.198 |
| ACGCCCAA | -0.231 |
| CGGCTGGA | -0.00051 |
| AGTAATAC | 0.11 |
| AGTGAATA | -0.11 |
| GGCGCAAC | -0.0183 |

| Sequence | PBM E-score |
| --- | --- |
| AAAGTAAC | -0.0927 |
| ACCTCTAG | -0.0589 |
| CAGTGGGA | 0.0102 |
| CATCAAAC | -0.00585 |
| GGGTTGGA | 0.0354 |
| CTTACGGA | 0.0481 |
| CGGAGAAG | 0.193 |
| CCCACAAA | -0.164 |
| AAATAGTG | -0.216 |
| AGTAAGAT | -0.0392 |
| CTCCTGGC | -0.0294 |
| AACTCTCA | -0.268 |
| GACTGGAA | -0.0578 |
| CCCTGTCA | -0.308 |
| AATGCAAT | -0.0808 |
| GGTTGTTA | 0.0958 |
| CGAACCAG | -0.145 |
| TCTACCAA | -0.169 |
| ACCCTGGA | -0.243 |
| AGGGCAGA | -0.311 |
| ATCGAGCG | 0.0654 |
| ACAGACCT | -0.14 |
| GATCTACA | -0.147 |
| AAAATTCA | -0.0403 |
| CAAAGGTC | -0.0594 |

| Sequence | PBM E-score |
| --- | --- |
| AGTACCCG | 0.0305 |
| ACGGTTGA | -0.165 |
| AATCGGAT | 0.244 |
| CCAGTCGA | -0.144 |
| AGTCTTCG | -0.185 |
| GGGAACGA | 0.045 |
| ACTGTGGG | -0.282 |
| ATATAATG | -0.211 |
| CGTAGATA | 0.07 |
| CCGGGCAA | 0.178 |
| AGATTGCA | -0.267 |
| GCGACACA | 0.0273 |
| ATCGTAGG | -0.23 |
| CACCAGTC | -0.122 |
| AATGTGCC | 0.145 |
| GGGAGACA | 0.0746 |
| CCGCGAGC | 0.281 |
| GCGTTACC | 0.0765 |
| GTGTCGCA | 0.117 |
| GAGTAGCC | -0.178 |
| TCCTTTAA | 0.163 |
| CCCGCGTC | 0.254 |
